Measurements from paper PMC11995724, “Antibiotic target discovery by integrated phenotypic and activity-based profiling of electrophilic fragments” (Cell chemical biology, 2025).
Out of some 3,200 compounds screened, about 110 (3.4%) showed an effect of 50% or more. Some of the results follow.

Each compound was assayed on T1, V. cholerae SAD30. Conditions: relative growth, OD600, LB; 25 µM; inhibitor.
T1 construct: SAD30
Set-up: species or system S. aureus MSSA476 (TSB) or V. cholerae SAD30 (LB); 384-well bacterial growth screen at 25 uM, OD600 relative to DMSO control

Point of comparison: `C=CC(=O)Nc1cnc(S(C)(=O)=O)c(C)c1` [2-O14, N-(6-methanesulfonyl-5-methylpyridin-3-yl)prop-2-enamide], “% of control remaining” value 93.5926%. Against it:
- CC(Cl)C(=O)N1CCc2ncccc2C1 (stereo not shown) [7-I19, 2-chloro-1-(5,6,7,8-tetrahydro-1,6-naphthyridin-6-yl)propan-1-one] — lower, 77.5814%
- C=CC(=O)N1CCC(C(=O)NCCO)CC1 [3-C18, N-(2-hydroxyethyl)-1-(prop-2-enoyl)piperidine-4-carboxamide] — higher, 101.441%
- CCOC(=O)c1ccc(NC(=O)CCl)cc1 [4-E17, ethyl 4-(2-chloroacetamido)benzoate] — higher, 94.3714%
- Cc1cccc(NC(=O)[C@@H]2CCCN2C(=O)CCl)n1 [5-C06, (2S)-1-(2-chloroacetyl)-N-(6-methylpyridin-2-yl)pyrrolidine-2-carboxamide] — higher, 101.208%
- COCCNC(=O)C(C#N)=Cc1c(F)cccc1Cl [8-O21, 3-(2-chloro-6-fluorophenyl)-2-cyano-N-(2-methoxyethyl)prop-2-enamide] — lower, 76.7505%
- C=CC(=O)Nc1cc(C)nn1-c1ccccc1F [2-C15, N-[1-(2-fluorophenyl)-3-methyl-1H-pyrazol-5-yl]prop-2-enamide] — higher, 95.1365%
- O=C(CCl)Nc1cc(-n2cnnn2)ccc1Cl [6-A05, 2-chloro-N-[2-chloro-5-(1H-1,2,3,4-tetrazol-1-yl)phenyl]acetamide] — higher, 99.0426%
- C=CC(=O)NCc1nc(C2CC2)oc1C [2-P13, N-[(2-cyclopropyl-5-methyl-1,3-oxazol-4-yl)methyl]prop-2-enamide] — higher, 95.9085%
- CCN(C(=O)CCl)C1CCCCC1 [5-D11, 2-chloro-N-cyclohexyl-N-ethylacetamide] — higher, 95.9966%
- Cc1nnnn1CCNC(=O)C(C)Cl (stereo not shown) [7-A19, 2-chloro-N-[2-(5-methyl-1H-1,2,3,4-tetrazol-1-yl)ethyl]propanamide] — lower, 87.2295%
- O=C(CCl)Nc1ccc(OCc2ccccc2)cc1 [6-K07, N-[4-(benzyloxy)phenyl]-2-chloroacetamide] — lower, 91.6106%
- C=CC(=O)Nc1cc(OC)ccc1C(=O)N(C)OC [1-J14, N,4-dimethoxy-N-methyl-2-(prop-2-enamido)benzamide] — higher, 105.005%
- O=C(CCl)NCC(c1ccccc1)c1c[nH]c2ccccc12 (stereo not shown) [6-C08, 2-chloro-N-[2-(1H-indol-3-yl)-2-phenylethyl]acetamide] — lower, 89.6388%
- CNC(=O)C(C#N)=Cc1cc(C)n(-c2cccc3ccccc23)c1C [9-P16, 2-cyano-3-[2,5-dimethyl-1-(naphthalen-1-yl)-1H-pyrrol-3-yl]-N-methylprop-2-enamide] — lower, 52.0054%
- Cc1cnc(C(C)N2CCN(C(=O)C(C)Cl)CC2)s1 (stereo not shown) [7-M03, 2-chloro-1-{4-[1-(5-methyl-1,3-thiazol-2-yl)ethyl]piperazin-1-yl}propan-1-one] — lower, 92.9126%
- COC(=O)Cc1ccc(C(=O)CCl)s1 [10-L12, methyl 2-[5-(2-chloroacetyl)thiophen-2-yl]acetate] — lower, 59.5363%
- CC(NC(=O)C(C#N)=Cc1ccc(-c2ccccc2)cc1)c1ccccc1 (stereo not shown) [8-J11, 3-{[1,1'-biphenyl]-4-yl}-2-cyano-N-(1-phenylethyl)prop-2-enamide] — lower, 57.5799%
- C=CC(=O)NCc1cn(C2CCCC2)nc1C [3-N21, N-[(1-cyclopentyl-3-methyl-1H-pyrazol-4-yl)methyl]prop-2-enamide] — higher, 97.2064%
- COCCn1c(C)cc(C(=O)CCl)c1C [10-D13, 2-chloro-1-[1-(2-methoxyethyl)-2,5-dimethyl-1H-pyrrol-3-yl]ethan-1-one] — higher, 99.9026%
- C=CC(=O)NCCC(=O)N1CC[S+]([O-])C(C)(C)CC1 (stereo not shown) [3-O17, N-[3-(7,7-dimethyl-1-oxo-1lambda4,4-thiazepan-4-yl)-3-oxopropyl]prop-2-enamide] — higher, 105.675%
- COc1ccc(-c2n[nH]cc2C=C(C#N)C(=O)Nc2ccccc2)cc1 [8-A14, 2-cyano-3-[3-(4-methoxyphenyl)-1H-pyrazol-4-yl]-N-phenylprop-2-enamide] — lower, 87.8994%
- CC(Cl)C(=O)N1CC(=O)Nc2ccccc21 (stereo not shown) [6-E07, 4-(2-chloropropanoyl)-1,2,3,4-tetrahydroquinoxalin-2-one] — lower, 89.7905%
- N#CC(=Cc1ccco1)C(=O)NCCc1ccc(F)cc1F [9-B11, 2-cyano-N-[2-(2,4-difluorophenyl)ethyl]-3-(furan-2-yl)prop-2-enamide] — lower, 78.518%
- O=C(CCl)NCCc1cccc2ccccc12 [6-E14, 2-chloro-N-[2-(naphthalen-1-yl)ethyl]acetamide] — higher, 105.261%
- COCC(NC(=O)C(C)Cl)c1ccccn1 (stereo not shown) [6-B13, 2-chloro-N-[2-methoxy-1-(pyridin-2-yl)ethyl]propanamide] — higher, 94.9474%
- Cc1ccc(C=C(C#N)C(=O)NC2CC2)s1 [9-K15, 2-cyano-N-cyclopropyl-3-(5-methylthiophen-2-yl)prop-2-enamide] — lower, 81.9171%
- C=CC(=O)NC1COCC1C (stereo not shown) [1-D06, N-(4-methyloxolan-3-yl)prop-2-enamide] — higher, 104.024%
- CCc1oc2ccccc2c1C=C(C#N)C(=O)NC1CC1 [9-M12, 2-cyano-N-cyclopropyl-3-(2-ethyl-1-benzofuran-3-yl)prop-2-enamide] — lower, 80.8294%
- C=CC(=O)NCc1cc(Cl)c2c(c1)OCCO2 [1-L05, N-[(8-chloro-2,3-dihydro-1,4-benzodioxin-6-yl)methyl]prop-2-enamide] — lower, 81.3154%
- Cc1noc(C)c1C(C)CNC(=O)C(C)Cl (stereo not shown) [6-P19, 2-chloro-N-[2-(3,5-dimethyl-1,2-oxazol-4-yl)propyl]propanamide] — higher, 101.924%
- C=CC(=O)NCc1nc2ccccc2c(=O)n1C [3-J10, N-[(3-methyl-4-oxo-3,4-dihydroquinazolin-2-yl)methyl]prop-2-enamide] — lower, 92.7954%
- CSC1=C(C#N)C2(CCCCC2)C(C#N)=C(NC(=O)CCl)N1 [4-E10, 2-chloro-N-[1,5-dicyano-4-(methylsulfanyl)-3-azaspiro[5.5]undeca-1,4-dien-2-yl]acetamide] — lower, 83.3297%
- N#Cc1ccc(N2C(=O)C=CC2=O)cc1 [10-B09, 4-(2,5-dioxo-2,5-dihydro-1H-pyrrol-1-yl)benzonitrile] — lower, 24.9367%
- Cc1ccc(S(=O)(=O)NC2CN(C(=O)CCl)C2)cc1 [5-E07, N-[1-(2-chloroacetyl)azetidin-3-yl]-4-methylbenzene-1-sulfonamide] — higher, 95.6604%
- CC(NC(=O)C(C#N)=Cc1cnn(C)c1)c1ccccc1 (stereo not shown) [8-N10, 2-cyano-3-(1-methyl-1H-pyrazol-4-yl)-N-(1-phenylethyl)prop-2-enamide] — lower, 64.7859%
- C=CC(=O)N1Cc2cnn(C)c2C1 [3-P14, 1-{1-methyl-1H,4H,5H,6H-pyrrolo[3,4-c]pyrazol-5-yl}prop-2-en-1-one] — higher, 102.852%
- C=CC(=O)N(C)CC1(O)CCc2ccccc21 (stereo not shown) [3-D11, N-[(1-hydroxy-2,3-dihydro-1H-inden-1-yl)methyl]-N-methylprop-2-enamide] — higher, 94.5598%
- Cc1cc(CC(C)NC(=O)C(C)Cl)n(-c2ccccc2)n1 (stereo not shown) [7-H21, 2-chloro-N-[1-(3-methyl-1-phenyl-1H-pyrazol-5-yl)propan-2-yl]propanamide] — lower, 83.2645%
- C=CC(=O)N1CCC(C(=O)N2CCCN(c3nccs3)CC2)CC1 [2-L20, 1-{4-[4-(1,3-thiazol-2-yl)-1,4-diazepane-1-carbonyl]piperidin-1-yl}prop-2-en-1-one] — lower, 91.7398%
- CC(C)(CNC(=O)CCl)CC1CCOCC1 [6-C04, 2-chloro-N-[2,2-dimethyl-3-(oxan-4-yl)propyl]acetamide] — higher, 100.863%
- C=CC(=O)N1CCC(C(=O)N[C@@H](C)c2ccc(Cl)s2)CC1 [3-E22, N-[(1S)-1-(5-chlorothiophen-2-yl)ethyl]-1-(prop-2-enoyl)piperidine-4-carboxamide] — higher, 101.088%
- CNS(=O)(=O)c1cc(NC(=O)CCl)ccc1C [6-M07, 2-chloro-N-[4-methyl-3-(methylsulfamoyl)phenyl]acetamide] — higher, 98.7392%
- C=CC(=O)NCc1ccc(C(=O)N2CCOCC2)cc1 [1-L17, N-{[4-(morpholine-4-carbonyl)phenyl]methyl}prop-2-enamide] — lower, 88.4903%
- C=CC(=O)N1CCOCC1c1noc(C)n1 (stereo not shown) [3-O11, 1-[3-(5-methyl-1,2,4-oxadiazol-3-yl)morpholin-4-yl]prop-2-en-1-one] — higher, 103.029%
- C=CC(=O)N(C)CC(=O)N1CCC(C)(c2nc(C)no2)CC1 [2-B22, N-methyl-N-{2-[4-methyl-4-(3-methyl-1,2,4-oxadiazol-5-yl)piperidin-1-yl]-2-oxoethyl}prop-2-enamide] — higher, 107.025%
